# Assay results from paper PMC4336329 (PLoS ONE, 2015).
# Hit rate of the full screen: of about 310,000 compounds, about 2,200 (0.71%) showed an effect of 50% or more. The effect is printed as a negative number. The list shows a part of the results.
# Target: human ether-à-go-go-related gene (hERG) potassium channel (human, UniProt Q12809)
# Experiment: primary screen, population patch clamp on CHO cells stably expressing hERG
# Sequence of human ether-à-go-go-related gene (hERG) potassium channel (Q12809 whole entry, looked up): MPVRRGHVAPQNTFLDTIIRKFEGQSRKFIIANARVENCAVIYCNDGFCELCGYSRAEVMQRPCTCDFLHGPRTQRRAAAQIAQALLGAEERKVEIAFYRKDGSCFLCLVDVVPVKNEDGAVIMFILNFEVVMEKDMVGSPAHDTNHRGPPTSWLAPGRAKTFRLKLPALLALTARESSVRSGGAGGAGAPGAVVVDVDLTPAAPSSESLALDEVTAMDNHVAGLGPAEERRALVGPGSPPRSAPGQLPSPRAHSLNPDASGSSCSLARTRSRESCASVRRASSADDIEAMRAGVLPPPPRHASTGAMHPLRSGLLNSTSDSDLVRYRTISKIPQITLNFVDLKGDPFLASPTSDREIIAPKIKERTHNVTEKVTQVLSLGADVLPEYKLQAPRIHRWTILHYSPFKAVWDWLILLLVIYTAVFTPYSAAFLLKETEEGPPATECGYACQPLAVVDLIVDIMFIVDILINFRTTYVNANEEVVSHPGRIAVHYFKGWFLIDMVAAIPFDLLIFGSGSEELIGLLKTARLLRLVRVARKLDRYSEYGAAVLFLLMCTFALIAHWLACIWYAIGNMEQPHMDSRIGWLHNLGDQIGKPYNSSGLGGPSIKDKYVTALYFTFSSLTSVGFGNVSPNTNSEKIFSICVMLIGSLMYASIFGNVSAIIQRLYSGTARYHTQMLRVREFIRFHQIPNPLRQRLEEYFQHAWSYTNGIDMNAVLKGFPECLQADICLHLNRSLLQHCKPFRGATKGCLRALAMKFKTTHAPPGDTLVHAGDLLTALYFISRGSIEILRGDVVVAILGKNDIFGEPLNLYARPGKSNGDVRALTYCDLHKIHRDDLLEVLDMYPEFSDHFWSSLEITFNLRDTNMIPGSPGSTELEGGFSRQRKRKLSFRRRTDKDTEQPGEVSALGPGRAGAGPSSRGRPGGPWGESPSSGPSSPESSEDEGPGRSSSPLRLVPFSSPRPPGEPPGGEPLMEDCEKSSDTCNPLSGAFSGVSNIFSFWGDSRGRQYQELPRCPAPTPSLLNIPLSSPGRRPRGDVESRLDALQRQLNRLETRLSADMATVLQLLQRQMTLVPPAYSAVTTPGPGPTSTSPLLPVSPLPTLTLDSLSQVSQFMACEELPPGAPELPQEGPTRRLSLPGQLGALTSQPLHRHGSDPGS
row,SMILES,"hERG current change (%, negative = inhibition) at 1uM [%]"
1,CC12CC[C@H]3[C@@H](CCC4(O)C[C@H](O)CCC34/C=N/NC(=O)c3ccccc3[N+](=O)[O-])C1(O)CCC2C1=CC(=O)OC1 (some centres unmarked),8.81
2,COC(=O)c1[nH]c2cccc(OC)c2c1NC(=O)CCN1CCC(C)CC1,-5.14
3,CCCCCC(=O)Nc1cccc(C2=NOC3(C2)C[C@@H](C(N)=O)N(C(=O)C2(C)CC2)C3)c1 (some centres unmarked),18.5
4,COc1ccccc1Oc1cc(-n2nc(C)cc2C)ncn1,4.77
5,Cc1ccc(OCCSc2nc3ncnc(N)c3[nH]2)cc1,5.82
6,O=C(CCCCCn1c(=S)[nH]c2ccc(N3CCOCC3)cc2c1=O)NCc1ccc2c(c1)OCO2,4.36
7,Cc1ccccc1C(=O)NCC(c1ccco1)N1CCc2ccccc21 (centres unmarked),-7.05
8,Cc1oc(-c2cccs2)nc1CS(=O)CC(=O)NCc1ccc2c(c1)OCO2 (centres unmarked),-1.28
9,COc1cccc(N2CCN(S(=O)(=O)c3ccc(-n4cnnn4)cc3)CC2)c1,15.5
10,CN(c1ccc(OCC(=O)OCC(=O)Nc2ccc(F)cc2)cc1)S(=O)(=O)c1ccc(Cl)cc1,-30.7
11,Cn1c(=O)n(C)c2cc(NC(=O)c3ccccc3NS(C)(=O)=O)ccc21,6.98
12,CSc1cccc(NC(=O)CN(C)S(=O)(=O)c2cnc[nH]2)c1,13.6
13,O=C1CN(C(=O)c2ccc3nc(Cc4cccc(Cl)c4)oc3c2)CCN1,12.3
14,CCC(C)NC(=O)c1ccc(CSCc2cccc(F)c2)o1 (centres unmarked),1.86
15,COc1ccc(C)cc1S(=O)(=O)N1CCN(c2cccc(C(F)(F)F)c2)CC1,12.1
16,CC1Cc2cc(S(=O)(=O)N3CCCCC3C)ccc2N1C(=O)C1CCC1 (centres unmarked),16.1
17,CC(=O)N1CC(=O)Nc2ccc(Cl)cc2C1c1ccccc1 (centres unmarked),14.4
18,CCCNC(=O)C1(CC2CC(c3ccccc3)=NO2)CCN(C(=O)c2ccccc2)CC1 (centres unmarked),-49.9
19,CCCCCC(=O)NC(NC(=S)Nc1ccc(S(N)(=O)=O)cc1)C(Cl)(Cl)Cl (centres unmarked),16.1
20,COc1ccc2c(C)c(C(=O)O)oc2c1,9.64
21,O=C(O)c1ccc(Sc2nnc(-c3cccc(Br)c3)o2)c([N+](=O)[O-])c1,6.51
22,Cc1ccc(C2C(C#N)=C(N)Oc3c2oc(CO)cc3=O)o1 (centres unmarked),9.74
23,CCOC(=O)C1=C(C)NC(=O)NC1c1ccoc1 (centres unmarked),4.7
